The list shows a part of the results.

B1: PhoQ; a variant is named by its letters at X, in order, P23837 (parent)
chain: MKKLLRLFFPLSLRVRFLLATAAVVLVLSLAYGMVALIGYSVSFDKTTFRLLRGESNLFYTLAKWENNKLHVELPENIDKQSPTMTLIYDENGQLLWAQRDVPWLMKMIQPDWLKSNGFHEIEADVNDTSLLLSGDHSIQQQLQEVREDDDDAEMTHSVAVNVYPATSRMPKLTIVVVDTIPVELKSSYMVWSWFIYVLSANLLLVIPLLWVAAWWSLRPIEALAKEVRELEEHNRELLNPATTRELTSLVRNLNRLLKSERERYDKYRTTLTDLTHSLKTPLXXLQXXLRSLRSEKMSVSDAEPVMLEQISRISQQIGYYLHRASMRGGTLLSRELHPVAPLLDNLTSALNKVYQRKGVNISLDISPEISFVGEQNDFVEVMGNVLDNACKYCLEFVEISARQTDEHLYIVVEDDGPGIPLSKREVIFDRGQRVDTLRPGQGVGLAVAREITEQYEGKIVAGESMLGGARMEVIFGRQHSAPKDE

This assay covers variants of B1. Kind of assay: enrichment ratio after two sorts for PhoP signalling (ratio (wild type AVST 3.29)); higher = more functional. The conditions noted are these: with PhoP (E. coli).
As for AYRG, the enrichment ratio is at most 0.25. The value for YELQ was 7.19. For KYSS, the enrichment ratio is at most 0.25. For the variant MGGH, the enrichment ratio is 20.1. Turning to SAGF, the enrichment ratio amounted to 8.46. Turning to TCPW, the enrichment ratio was at most 0.25. QQHG: the enrichment ratio is at most 0.25.

As for HFKH, the enrichment ratio was at most 0.25. For TSGN, the enrichment ratio was 14.9. As for FHHD, the figure is at most 0.25; as for MDVP, at most 0.25; as for TWDQ, at most 0.25.

With ARWL, the enrichment ratio was at most 0.25. Turning to KMRQ, the enrichment ratio is at most 0.25. SHEK: the enrichment ratio was at most 0.25.

SCVR: the enrichment ratio is 1.05.

Consider WTSS, for which the enrichment ratio was at most 0.25. As for RQLY, the figure is at most 0.25.

Take FKEI: the enrichment ratio was at most 0.25.

Consider NSKN, for which the enrichment ratio is at most 0.25. The value for LVWC was at most 0.25. As to DCCE, the enrichment ratio is at most 0.25. KDYQ: the enrichment ratio was at most 0.25. For the variant DWAH, the enrichment ratio is at most 0.25. The value for PGRS was at most 0.25. For TIIG, the enrichment ratio is at most 0.25. As for ERAC, the enrichment ratio is at most 0.25.

For the variant GTHI, the enrichment ratio was at most 0.25. For PADH, the enrichment ratio is at most 0.25. With PKER, the enrichment ratio is at most 0.25. On to RAWS, for which the enrichment ratio was at most 0.25. For VGTD, the enrichment ratio is at most 0.25. As for KYCW, the figure is at most 0.25; as for RELL, at most 0.25. In the case of HMPL, the enrichment ratio is at most 0.25. Regarding HMHH, the enrichment ratio was at most 0.25.

For the variant YGDC, the enrichment ratio is at most 0.25. The value for FHRN was at most 0.25. The value for VNTR was at most 0.25; that for SMNC was at most 0.25; that for EQYL was at most 0.25.

Turning to GCRE, the enrichment ratio is at most 0.25.

As to PYPA, the enrichment ratio is at most 0.25. In the case of YQVM, the enrichment ratio is at most 0.25. Turning to AVCR, the enrichment ratio was 6.41.

Regarding SSAL, the enrichment ratio was 12.2. For DWSP, the enrichment ratio is at most 0.25. NHIS: the enrichment ratio was at most 0.25. As to LLQD, the enrichment ratio is at most 0.25. As to RTQN, the enrichment ratio was 2.93. The value for HQTL was at most 0.25; that for YSEW was at most 0.25; that for LQHP was at most 0.25. Take YTTH: the enrichment ratio was at most 0.25. ALEY: the enrichment ratio is at most 0.25. With NPCL, the enrichment ratio is at most 0.25. Regarding DTSC, the enrichment ratio was at most 0.25. The value for HPDV was at most 0.25. With RLGL, the enrichment ratio was at most 0.25. For the variant MESF, the enrichment ratio was at most 0.25. As for RMND, the enrichment ratio was at most 0.25. For the variant TVIY, the enrichment ratio was at most 0.25. Take PVSR: the enrichment ratio is at most 0.25. For TMTD, the enrichment ratio is at most 0.25. As for APQM, the enrichment ratio is at most 0.25. As for VKEF, the enrichment ratio was at most 0.25. The value for RDFG was at most 0.25. On to RLFN, for which the enrichment ratio is at most 0.25. For the variant SWFE, the enrichment ratio is at most 0.25.

For the variant SWTT, the enrichment ratio was at most 0.25. As to TQYP, the enrichment ratio is at most 0.25. As for HEYT, the enrichment ratio was at most 0.25. Take APKF: the enrichment ratio is at most 0.25. The value for HHWY was at most 0.25. As for MMDY, the enrichment ratio is at most 0.25.

In the case of RHRE, the enrichment ratio is at most 0.25. As for VELM, the enrichment ratio amounted to 4.12. As for WHLS, the figure is at most 0.25; as for IENT, at most 0.25. With PFGH, the enrichment ratio is at most 0.25. On to FFIC, for which the enrichment ratio is at most 0.25. Turning to DTVQ, the enrichment ratio was at most 0.25. Turning to KTDC, the enrichment ratio was at most 0.25. As to EFIY, the enrichment ratio was at most 0.25. In the case of PMVC, the enrichment ratio was at most 0.25.

ELLW: the enrichment ratio was at most 0.25. As for PCRW, the figure is at most 0.25. Consider PEHD, for which the enrichment ratio was at most 0.25. Regarding VFRQ, the enrichment ratio is at most 0.25. The value for YGDY was at most 0.25; that for SWCH was at most 0.25; that for DIMS was at most 0.25. With VDVL, the enrichment ratio is at most 0.25. For LRGA, the enrichment ratio was at most 0.25. QNFT: the enrichment ratio was at most 0.25. The value for VAYK was at most 0.25; that for LDVC was 0.438; that for AKSA was 3.15. The value for YFCT was at most 0.25; that for NLPR was at most 0.25; that for HWPV was at most 0.25. As to DSAN, the enrichment ratio was at most 0.25. For the variant WENI, the enrichment ratio is at most 0.25. As for HECY, the figure is at most 0.25; as for DRLD, at most 0.25; as for SDNY, 0.96. As to NRFP, the enrichment ratio was at most 0.25. As for LSNC, the figure is at most 0.25. Turning to NQFG, the enrichment ratio is at most 0.25. As for PKNI, the figure is at most 0.25; as for EICH, at most 0.25; as for KTDH, at most 0.25. Regarding YQER, the enrichment ratio was at most 0.25. As to VQLE, the enrichment ratio was at most 0.25. For DEQN, the enrichment ratio is at most 0.25.

With YATV, the enrichment ratio was at most 0.25. Turning to WFIT, the enrichment ratio is at most 0.25.

Regarding PWAV, the enrichment ratio was at most 0.25. Regarding DNYD, the enrichment ratio was at most 0.25. ISSW: the enrichment ratio was at most 0.25.

As for KHMN, the enrichment ratio is at most 0.25. With YIAC, the enrichment ratio came to 0.665.

TYFC: the enrichment ratio is at most 0.25. As to HWRY, the enrichment ratio is at most 0.25. Turning to QDPR, the enrichment ratio is at most 0.25.

For the variant VCYT, the enrichment ratio was at most 0.25. The value for IPEG was at most 0.25. Regarding QDYI, the enrichment ratio was at most 0.25.

On to GTCE, for which the enrichment ratio was at most 0.25. Regarding QHCH, the enrichment ratio was at most 0.25. Turning to RNYS, the enrichment ratio is at most 0.25. As for PAAE, the enrichment ratio is at most 0.25. In the case of FPHV, the enrichment ratio is at most 0.25. Regarding RRNV, the enrichment ratio was at most 0.25.

On to REDY, for which the enrichment ratio was at most 0.25. Consider HTII, for which the enrichment ratio is at most 0.25. HECD: the enrichment ratio is at most 0.25. YRTE: the enrichment ratio is at most 0.25.

As to YIFA, the enrichment ratio was at most 0.25.

WIWL: the enrichment ratio is at most 0.25. On to NQHN, for which the enrichment ratio was at most 0.25.

For PERQ, the enrichment ratio was at most 0.25. Turning to NEPS, the enrichment ratio was at most 0.25. Regarding FKNG, the enrichment ratio was at most 0.25.

Turning to MWPC, the enrichment ratio is at most 0.25. As to FSNY, the enrichment ratio is at most 0.25. Take RKCT: the enrichment ratio is at most 0.25. For the variant FNWM, the enrichment ratio is at most 0.25. Take GNAV: the enrichment ratio is 5.92. Take AQPT: the enrichment ratio was at most 0.25. The value for SMMV was 17.9. As for FIHC, the figure is at most 0.25; as for GNQW, at most 0.25. TQNE: the enrichment ratio is at most 0.25. As to NLPW, the enrichment ratio was at most 0.25. As for GHFT, the enrichment ratio was at most 0.25. With PGPL, the enrichment ratio is at most 0.25. Consider TCVK, for which the enrichment ratio is at most 0.25. As for TFVF, the enrichment ratio is at most 0.25. HCRN: the enrichment ratio was at most 0.25. With PSVT, the enrichment ratio is at most 0.25. In the case of YIWK, the enrichment ratio is at most 0.25. The value for INCW was at most 0.25; that for NSMR was at most 0.25; that for FATP was at most 0.25. On to TVTW, for which the enrichment ratio was at most 0.25.

FYWA: the enrichment ratio was at most 0.25. As for MGSQ, the figure is 4.64. Regarding KIKL, the enrichment ratio is at most 0.25.

Take GIVT: the enrichment ratio came to 2.14.

Consider MYFM, for which the enrichment ratio is at most 0.25. On to IGRM, for which the enrichment ratio is at most 0.25. For the variant YPEL, the enrichment ratio was at most 0.25.

Regarding KHMI, the enrichment ratio was at most 0.25. As to DPWS, the enrichment ratio is at most 0.25. Take QIMD: the enrichment ratio is at most 0.25. KNFN: the enrichment ratio was at most 0.25. For DGRM, the enrichment ratio is at most 0.25. Regarding WDKW, the enrichment ratio was at most 0.25.

As to RKKP, the enrichment ratio was at most 0.25. The value for AGCV was 23.6; that for LIVS was at most 0.25; that for SDYT was at most 0.25.

For IGAQ, the enrichment ratio was at most 0.25. In the case of RFTR, the enrichment ratio is at most 0.25.

NRDW: the enrichment ratio is at most 0.25. Take KLGW: the enrichment ratio is at most 0.25. The value for VELV was 3.27. In the case of DDEC, the enrichment ratio was at most 0.25. As to ENGP, the enrichment ratio was at most 0.25. For SIRY, the enrichment ratio was at most 0.25.

On to VITI, for which the enrichment ratio was at most 0.25. For AETY, the enrichment ratio stood at 16. The value for KVAK was at most 0.25. On to MPTS, for which the enrichment ratio is at most 0.25.
